# Experimental data from the supplement of paper PMC3334620.
# In all, about 33,000 sequences were measured (“E-score (-0.5 to 0.5)”: median about -0.035, highest 2% from about 0.35 on). Some of the results follow.
# Target: T1, Pdr3 (UniProt P33200)
# T1 sequence: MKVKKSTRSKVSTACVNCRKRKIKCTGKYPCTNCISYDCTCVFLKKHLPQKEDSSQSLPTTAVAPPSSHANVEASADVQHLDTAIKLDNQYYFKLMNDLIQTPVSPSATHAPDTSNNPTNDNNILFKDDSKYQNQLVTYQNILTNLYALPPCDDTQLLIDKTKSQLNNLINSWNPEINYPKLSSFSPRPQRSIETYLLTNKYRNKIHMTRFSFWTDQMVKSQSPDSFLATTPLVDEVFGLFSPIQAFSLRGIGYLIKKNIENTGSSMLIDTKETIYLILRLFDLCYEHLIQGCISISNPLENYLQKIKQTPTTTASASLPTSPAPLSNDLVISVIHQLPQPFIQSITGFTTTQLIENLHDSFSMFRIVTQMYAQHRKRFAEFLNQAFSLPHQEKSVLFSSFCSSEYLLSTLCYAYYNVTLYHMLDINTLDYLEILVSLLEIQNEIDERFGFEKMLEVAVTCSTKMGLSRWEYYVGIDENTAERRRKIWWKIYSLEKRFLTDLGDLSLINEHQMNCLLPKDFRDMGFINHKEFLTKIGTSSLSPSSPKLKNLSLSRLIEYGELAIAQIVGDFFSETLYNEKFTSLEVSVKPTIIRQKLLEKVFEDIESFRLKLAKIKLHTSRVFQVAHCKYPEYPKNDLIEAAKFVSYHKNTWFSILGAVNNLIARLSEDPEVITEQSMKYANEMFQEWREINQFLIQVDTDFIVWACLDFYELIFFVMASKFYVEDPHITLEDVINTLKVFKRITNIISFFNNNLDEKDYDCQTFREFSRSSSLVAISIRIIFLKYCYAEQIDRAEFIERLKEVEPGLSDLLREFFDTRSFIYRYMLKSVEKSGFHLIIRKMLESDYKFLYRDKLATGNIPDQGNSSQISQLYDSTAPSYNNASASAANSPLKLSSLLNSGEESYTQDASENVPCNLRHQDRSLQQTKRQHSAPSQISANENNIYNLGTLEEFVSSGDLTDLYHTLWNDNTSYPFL
# Test: PBM E-score (8-mer binding enrichment) (E-score (-0.5 to 0.5)); higher = stronger / more preferred TF binding; most listed sequences are background and not binding sites
# Details: protein concentration: 200 nM; construct: GST-full length
# Procedure, shortened: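 For each ungapped eight-base word taken together with its reverse complement, the Universal PBM Analysis Suite assigned an E-score. Binding data came from GST-tagged yeast transcription factors, applied at about 100-200 nM, on universal all-10-mer Agilent arrays made double-stranded by primer extension. Fluorescent anti-GST marked bound protein, and scans were normalised with masliner.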
row,Sequence,PBM E-score
1,GGCCCCCA,-0.21
2,CCCTCAGC,-0.0804
3,AAATCACG,0.205
4,CCCGCGGC,0.488
5,GGCCTCAA,0.0353
6,AGCCCCGG,0.303
7,CATACATG,-0.163
8,CTCCAAGC,-0.227
9,GGGCGCGA,0.238
10,AGAGGAAG,-0.0644
11,CAGCCTCC,-0.065
12,ATGTTACG,-0.283
13,ACTCGCAA,-0.0907
14,TCCGCAGA,0.258
15,ATCCGCGC,0.309
16,AATCTCGG,0.272
17,GATCAACA,-0.178
18,CGTGAGAC,-0.0337
19,AAACCTGG,-0.0779
20,CACGAGCA,-0.112
21,AAAAGCTA,-0.0489
22,ATAAAGTA,-0.0718

row,Sequence,PBM E-score
1,CACCCTCA,-0.13
2,AGTACCCA,-0.106
3,CTGCTCCC,-0.0396
4,TCCTTAAA,-0.366
5,GGGTTTTA,0.0747
6,ACGCCCGG,0.311
7,CGGGGCTA,-0.0766
8,AAGTCTTG,-0.227
9,CTTTACTC,-0.0439
10,CCATTTAA,-0.0335
11,ATCCTTGG,-0.0819
12,AGAAAAAA,-0.103
13,CACTCAGC,0.0738
14,GCACCGAA,-0.0086
15,AATTCGAG,-0.223
16,CAGGTCGA,0.0254
17,ACGAAACC,0.124
18,ACTTCTCG,0.00113
19,AACTCGTC,-0.0963
20,GGATTCGA,0.0995
21,AAGTTGAG,0.00223
22,AAGACTGT,-0.263

row,Sequence,PBM E-score
1,GGGACCGA,0.238
2,GGTATTAC,0.225
3,CGTACTGC,-0.206
4,AATACCCA,0.041
5,AAACAAGG,-0.141
6,GTAAGACA,-0.16
7,TATTTAAA,0.15
8,AATTGCAC,0.0157
9,AGTTCCAA,-0.0003
10,AGGGGCAA,-0.0487
11,AAGTGATG,-0.086
12,AGTGTTGA,0.0967
13,CATTGGGG,-0.191
14,CAGGGTTC,-0.0232
15,ATCCATTC,0.119
16,AAAGCGAA,0.0456
17,AGTCTAGG,-0.294
18,ATAGAAGC,-0.0746
19,CGTAGAAC,-0.135
20,AACTCACC,0.0831
21,ACAATCTC,-0.00834
22,GAAAAATC,0.0586

row,Sequence,PBM E-score
1,GACGTTTA,-0.243
2,CTGTCTAC,-0.218
3,ACTGGCCG,0.0679
4,AGGATGTA,-0.0686
5,GCAACGGA,0.413
6,GTTTGAGA,-0.226
7,CAGTACCG,0.185
8,TAAGCAAA,-0.179
9,CTTCTCCA,-0.225
10,CATATCGG,0.055
11,AGTTCCCA,0.16
12,AGGGTCCG,0.263
13,ACAGGTGA,-0.0799
14,CAGGACGC,-0.158
15,TGTGTCAA,-0.238
16,CAAATATA,0.0437
17,CGCGATGC,-0.0841
18,GTCCTGGA,-0.268
19,AAAATCGG,0.106
20,ACCTGTAT,-0.287
